Measured values taken from publication PMC4336329 (PLoS ONE, 2015).
The whole screen tested about 310,000 compounds, of which about 14,000 (4.5%) showed an effect of 50% or more. The effect is printed as a negative number. This is one part of the list.

Target: human ether-à-go-go-related gene (hERG) potassium channel (human, UniProt Q12809)
Assay: primary screen, population patch clamp on CHO cells stably expressing hERG
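Further: peak tail current of the secondary pulse compared with the same well before compound.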

Sequence of human ether-à-go-go-related gene (hERG) potassium channel (Q12809 whole entry, looked up): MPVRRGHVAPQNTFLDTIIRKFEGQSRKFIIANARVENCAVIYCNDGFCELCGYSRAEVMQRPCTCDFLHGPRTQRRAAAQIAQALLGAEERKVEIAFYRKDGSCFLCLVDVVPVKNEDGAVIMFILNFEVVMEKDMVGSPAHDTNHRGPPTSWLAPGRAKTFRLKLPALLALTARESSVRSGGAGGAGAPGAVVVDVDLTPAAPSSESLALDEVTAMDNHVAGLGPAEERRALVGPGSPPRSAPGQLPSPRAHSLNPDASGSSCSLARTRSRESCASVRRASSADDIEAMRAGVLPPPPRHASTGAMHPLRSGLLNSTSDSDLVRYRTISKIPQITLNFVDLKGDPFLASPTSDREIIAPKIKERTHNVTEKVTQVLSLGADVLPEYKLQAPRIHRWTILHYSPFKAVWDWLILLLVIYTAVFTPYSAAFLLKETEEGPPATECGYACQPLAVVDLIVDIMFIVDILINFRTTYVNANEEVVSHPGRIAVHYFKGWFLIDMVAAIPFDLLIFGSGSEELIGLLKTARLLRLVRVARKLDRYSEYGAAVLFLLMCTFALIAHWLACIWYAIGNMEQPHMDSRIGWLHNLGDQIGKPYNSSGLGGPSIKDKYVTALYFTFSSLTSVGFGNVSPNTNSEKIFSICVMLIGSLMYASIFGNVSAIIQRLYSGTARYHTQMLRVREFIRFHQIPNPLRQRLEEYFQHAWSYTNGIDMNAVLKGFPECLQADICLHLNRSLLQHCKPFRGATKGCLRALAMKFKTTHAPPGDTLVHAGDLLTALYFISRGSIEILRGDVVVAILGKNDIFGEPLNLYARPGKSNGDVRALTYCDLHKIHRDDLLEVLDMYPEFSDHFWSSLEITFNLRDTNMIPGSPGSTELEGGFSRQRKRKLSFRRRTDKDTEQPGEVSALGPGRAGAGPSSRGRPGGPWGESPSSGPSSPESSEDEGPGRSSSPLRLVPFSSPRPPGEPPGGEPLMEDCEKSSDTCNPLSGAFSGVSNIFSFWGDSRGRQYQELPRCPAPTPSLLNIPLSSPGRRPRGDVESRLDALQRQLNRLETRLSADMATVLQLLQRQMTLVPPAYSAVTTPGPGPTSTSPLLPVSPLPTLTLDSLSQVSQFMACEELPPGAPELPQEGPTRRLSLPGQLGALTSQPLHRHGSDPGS

| SMILES | hERG current change (%, negative = inhibition) at 10uM [%] |
| --- | --- |
| Cc1nc(-c2ccc3c(c2)CCC(=O)N3)cs1 | 5.1 |
| O=C(Nc1nnc(C23CC4CC(CC(C4)C2)C3)s1)c1ccco1 | 13.2 |
| O=C(NCc1ccccc1)C1CC(=O)N(C2CCCCCC2)C1 (centres unmarked) | 16.8 |
| O=C1NCCN1Cc1ccccc1 | -8.57 |
| CC1CN(C)C(C)(C)CC1(O)c1ccccc1.Cl (centres unmarked) | 3.3 |
| Cc1cc(C)n(CC(=O)N/N=C/c2c[nH]c3ccccc23)n1 | 15 |
| CC(=O)OCC(=O)[C@@]1(O)CC[C@H]2[C@@H]3C[C@H](C)C4=CC(=O)C=C[C@]4(C)[C@H]3[C@@H](O)C[C@@]21C | 16.4 |
| Cc1ccc(-c2nnc3c4ccccc4c(C)nn23)cc1S(=O)(=O)N1CCN(C)CC1 | -6.7 |
| CCOCC(=O)NCc1ccc2c(c1)OCO2 | -0.263 |
| N#Cc1c(N)c(C(=O)c2ccc(Br)cc2)n2c1CCC2 | -5 |
| CN(CC(=O)Nc1cccc(F)c1)C(=O)CCc1nc2sc3c(c2c(=O)[nH]1)CCCC3 | 1.1 |
| Clc1ccc(CN2CCN(/N=C/c3ccco3)CC2)cc1 | -12.1 |
| CC1=C(C(=O)OCc2ccc3c(c2)OCO3)C(c2ccc(Cl)cc2)NC(=O)N1 (centres unmarked) | 1.67 |
| COc1ccc(S(=O)(=O)N2CCOCC2)cc1NC(=O)CSc1nnc(C2CC2)n1N | 12.7 |
| Cc1ccc(NC(=O)c2ccccc2O)cc1 | 1.62 |
| O=C(CC(=O)c1cc(Cl)ccc1O)c1ccccc1 | -3.98 |
| Cc1ccc(C(=O)ON=C2CCN(S(=O)(=O)c3ccccc3)CC2)cc1 | -17.7 |
| Cc1ccc(C)c(Cn2nnc3c(=O)[nH]c(C4CCCN(C(=O)c5ccco5)C4)nc32)c1 (centres unmarked) | -38.3 |
| Nc1nc(SCC(=O)Nc2ccc(C(F)(F)F)cc2)[nH]c(=O)c1NC(=O)c1ccc(F)c(F)c1 | 19.4 |
| COc1ccc(CC(=O)Nc2ccc(S(=O)(=O)N3CCCC3)cc2)c(OC)c1 | -18.6 |
| CCN(CC)CCCNC(=O)C(C)n1nc(C)c2sc3ccccc3c2c1=O (centres unmarked) | -19.7 |
| CC(=O)Nc1nc2c(s1)C(=O)NCCC2 | -2.05 |
| O=C(NN1CCCCC1)c1cccc(COc2ccc(Cl)cc2)c1 | -7.67 |

| SMILES | hERG current change (%, negative = inhibition) at 10uM [%] |
| --- | --- |
| CSc1ncc(Cl)c(C(=O)Nc2cccc(C)c2)n1 | -4.24 |
| Cc1ccc2nc(C3CCCN3Cc3nc(CCC(C)C)no3)[nH]c2c1 (centres unmarked) | -9.15 |
| CC/C(=N\Nc1ccccc1)c1c(O)n(-c2ccc(OC)cc2)c(=O)[nH]c1=O | 8.4 |
| O=C(COC(=O)c1ccc(S(=O)(=O)N2CCCCC2)cc1)NCc1ccco1 | 10.2 |
| CCCCC(C)n1[nH]c(=O)c2c(C)cc(C)nc21 (centres unmarked) | -13.9 |
| Nc1ccc(OCCCc2c(N)nc(N)nc2N)cc1 | -4.21 |
| O=C(NC(=S)NCC1CCCO1)c1cccc([N+](=O)[O-])c1 (centres unmarked) | 2.05 |
| CCc1ccc(C(N)=S)cc1 | 18.9 |
| Cc1ccc(NC(=O)CC2CCCC2)c(Br)c1 | -18.3 |
| CCCSc1nc(O)c(C2OC(=O)c3c2ccc(OC)c3OC)c(=O)n1C (centres unmarked) | 18.3 |
| O=C(CN1C(=O)NC2(CCCCC2)C1=O)N1CCN(C(=O)c2cccs2)CC1 | 5.71 |
| Cc1cc(NC(=O)CCCC(=O)Nc2ccc(F)cc2)no1 | -3.52 |
| O=C1CCCC(O)=C1N=Nc1ccc(C(=O)O)cc1 | 15.9 |
| Cc1ccccc1CSc1nnc(-c2cnccn2)n1C | 7.84 |
| O=C(CC12CC3CC(CC(C3)C1)C2)NCc1ccco1 | 13.5 |
| COCCNC(=O)C(OC(=O)c1cccs1)c1ccccc1 (centres unmarked) | 13.8 |
| O=c1c2[nH]c3ccccc3c2ncn1Cc1ccco1 | 22.2 |
| CCOC(=O)c1c(CN(CC)CC)n(C)c2cc(Br)c(O)cc12.Cl | -73.6 |
| COC(=O)c1cccnc1SCc1ccccc1 | -14.9 |
| CCc1nnc(NC(=O)C2CCC2)s1 | 2.37 |
| CCc1ccc(-c2cnc3nc[nH]c(=O)c3n2)cc1 | 17.4 |
| CN(C)c1ccc(C(=O)/C=C/c2ccccc2)cc1 | 8.65 |
| CC(OC(=O)c1ccc(C(C)(C)C)cc1)C(=O)NC1CCCCC1C (centres unmarked) | 17.1 |

| SMILES | hERG current change (%, negative = inhibition) at 10uM [%] |
| --- | --- |
| COC(=O)c1ccccc1NC(=O)CSc1nnnn1CC(=O)O | 16.9 |
| N/C(CCN1CCOCC1)=N/O | 17.9 |
| COc1cc(NC(=O)Nn2cnnc2)cc(OC)c1OC | 16.3 |
| COc1cc(C(=S)N2CCN(c3ccccc3Cl)CC2)cc(O)c1O | -13.4 |
| COC(=O)c1ccc(NS(=O)(=O)c2cc3c4c(c2)CCN4C(=O)CC3)cc1 | -0.521 |
| CN(C(=O)CCS(=O)(=O)c1ccc2c(c1)oc(=O)n2C)C1CCCCC1 | 3.68 |
| Cc1ccc(C)c(C(=O)COC(=O)c2nn(C)c(=O)c3ccccc23)c1 | -25.6 |
| O=C1NCCCC1C(=O)N/N=C/c1cccc(O)c1 (centres unmarked) | 18.5 |
| CC(=O)c1c(C)[nH]c(C(=O)Nc2ccc(S(=O)(=O)N(C)C)cc2)c1C | 1.65 |
| COc1ccc(C)cc1S(=O)(=O)N(CC(=O)N1CCOCC1)c1cc(C)cc(C)c1 | -77.4 |
| CCOc1ccccc1N(CC(=O)Nc1ccccc1)S(=O)(=O)c1ccccc1 | 15.6 |
| O=S(=O)(NCc1ccc(F)cc1)c1ccc(-n2cccn2)cc1 | -6.52 |
| O=C1NCCCc2c1oc1ccc(O)cc21 | 28.2 |
| O=C1CCC(C(=O)Nc2cc(C(F)(F)F)ccc2-n2cncn2)=NN1 | -4.78 |
| N#Cc1c(N2C(=O)c3ccc(C(=O)O)cc3C2=O)sc2c1CCCC2 | 22 |
| Nc1nc(SCC(=O)N2CCCc3ccccc32)[nH]c(=O)c1-c1ccccc1 | 8.94 |
| CS(=O)(=O)CCSc1ncccc1C(=O)NCc1cccs1 | -23.8 |
| CC(C)n1cc(C(=O)NC2CC(C)(C)Cc3c2cnn3-c2ccccc2)cn1 (centres unmarked) | 5.72 |
| O=C(CCn1c(=O)oc2ccc(Cl)cc21)NCCCN1CCOCC1 | 17.1 |
| CC1(C)CC(=O)C=C(c2cccc3c2Oc2ccccc2S3)C1 | -1.31 |
| CCOc1ccc(CNc2ccc3c(c2)ncn3C)cc1 | -46.6 |
| N#CCNc1ccc([N+](=O)[O-])cc1C#N | -6.8 |
| Cc1sc2nc(CSc3nc4ccccc4c(=O)n3CCCN3CCOCC3)[nH]c(=O)c2c1C | -31.9 |

| SMILES | hERG current change (%, negative = inhibition) at 10uM [%] |
| --- | --- |
| O=C(COC(=O)Cc1ccc(Br)cc1)NCC1CCCCC1 | 14.7 |
| O=C(CN1CC(=O)Oc2ccccc21)OCC(=O)c1cccc(Br)c1 | 16.7 |
| CCN(CC)S(=O)(=O)c1ccc(N2CCOCC2)c(NC(=O)c2cccc3ccccc23)c1 | 7.99 |
| CCOC(=O)/C(C#N)=C/c1ccc(OCC(=O)Nc2ccc(OC)cc2)c(OC)c1 | 19.2 |
| C=CCSc1nnc(-c2ccc(Cl)cc2Cl)o1 | -20.4 |
| Cc1ccc(C)c(NC(=O)C(OC(=O)c2ccc(NC(=O)CC#N)cc2)c2ccccc2)c1 (centres unmarked) | 0.752 |
| N#C/C(=C\c1ccccc1)C(=O)N1CCC(C(N)=O)CC1 | 15.6 |
| COC(=O)c1ccc(C2C3=C(Nc4nnnn42)c2ccccc2OC3)cc1 (centres unmarked) | -0.518 |
| CCOC(=O)C1CCN(C(=O)CN2C(=O)c3ccccc3S2(=O)=O)CC1 | 6.4 |
| O=C1NC(c2cccs2)Nc2sc3c(c21)CCCC3 (centres unmarked) | 6.66 |
| NC(=O)C1CCN(C(=O)C(Cc2ccccc2)NC(=O)c2ccccc2)CC1 (centres unmarked) | 16.5 |
| O=C(Cn1[nH]c(=O)c2ccccc2c1=O)Nc1ccc(-c2nnc3n2CCCCC3)cc1 | 13 |
| Cc1cc(C(C)(C)C)oc1C(=O)N(CC(=O)NC1CCCC1)c1cccc(C(F)(F)F)c1 | 16.1 |
| CC(=O)NCCCc1nc2ccccc2n1Cc1c(F)cccc1Cl | -27.6 |
| COc1ccc(NC(=O)C2CCN(C(=O)NC3CCCCC3)CC2)c(OC)c1 | -18.4 |
| O=[N+]([O-])c1cc(Cl)ccc1Nc1ccccc1 | 9.85 |
| Cc1cc(C)nc(SCCS(=O)(=O)Cc2ccccc2)n1 | -1.06 |
| C=CCCCCCCCCc1nc(SCC(=O)O)n[nH]1 | -4.13 |
| CC(=O)Nc1ccc(-c2csc(NCc3ccccc3)n2)cc1 | 1.03 |
| Cc1ccc(C(=O)N2CCCC(CCC(=O)N3CCN(c4ccccn4)CC3)C2)cc1C (centres unmarked) | -34.9 |
| COc1ccccc1C(=O)Nc1ccc(Br)c2cccnc12 | 27.2 |
| CCOC(=O)c1cc(NC(=O)Cc2ccc(S(=O)(=O)N3CCOCC3)s2)cc(C(=O)OCC)c1 | 3.99 |
| O=C1OCC2=C1C(c1ccccc1)CC(=O)N2c1cccc(F)c1 (centres unmarked) | 13 |
